Antiviral effects data for one sequence are collected here from patent US20130205416A1 (priority 2010, published 2013).

This assay deals with murine gammaherpes virus 68 (MHV-68). In kind it is cell-based. The conditions noted are these: data not shown.

In the case of WLVFFVIFYFFR [FP1], the antiviral effects result is recorded as “no antiviral effects”.
